Measured values as given in patent US20230192795A1 (Hoffmann-La Roche, published 2023).
Each block holds one binder with its values, some of them ahead of it.

Tests used:
[1] = molecular target: T1, IL-7Rα/IL-2Rγ on human T cells (human, UniProt P16871 21-459; P31785 23-369); assay: cell-based or functional assay
T1 sequence (looked up) 1: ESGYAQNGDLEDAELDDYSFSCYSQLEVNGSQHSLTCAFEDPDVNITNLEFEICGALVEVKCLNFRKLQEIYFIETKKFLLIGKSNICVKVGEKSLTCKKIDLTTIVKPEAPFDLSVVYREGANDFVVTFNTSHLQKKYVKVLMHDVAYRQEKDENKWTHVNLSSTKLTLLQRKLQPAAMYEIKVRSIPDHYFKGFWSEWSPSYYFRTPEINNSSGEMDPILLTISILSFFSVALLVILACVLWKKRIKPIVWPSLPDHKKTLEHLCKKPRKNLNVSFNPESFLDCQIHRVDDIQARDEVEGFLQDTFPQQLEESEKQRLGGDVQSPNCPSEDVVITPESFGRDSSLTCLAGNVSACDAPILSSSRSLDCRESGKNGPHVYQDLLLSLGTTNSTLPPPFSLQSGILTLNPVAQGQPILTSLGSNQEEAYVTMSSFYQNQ
T1 sequence (looked up) 2: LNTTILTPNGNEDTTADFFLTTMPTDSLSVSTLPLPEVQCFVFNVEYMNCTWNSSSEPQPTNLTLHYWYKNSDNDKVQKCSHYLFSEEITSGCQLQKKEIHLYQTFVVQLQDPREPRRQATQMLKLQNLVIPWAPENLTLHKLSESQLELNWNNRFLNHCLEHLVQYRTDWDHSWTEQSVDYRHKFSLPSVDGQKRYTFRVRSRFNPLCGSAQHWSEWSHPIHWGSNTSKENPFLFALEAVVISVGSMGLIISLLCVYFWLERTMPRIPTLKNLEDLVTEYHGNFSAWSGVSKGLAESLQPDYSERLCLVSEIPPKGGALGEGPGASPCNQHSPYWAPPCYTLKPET

human PD-1 on T cells = human PD-1 on T cells (human, UniProt Q15116 25-288); assay: cell-based or functional assay
Sequence of human PD-1 on T cells (Q15116 25-288 limits assumed): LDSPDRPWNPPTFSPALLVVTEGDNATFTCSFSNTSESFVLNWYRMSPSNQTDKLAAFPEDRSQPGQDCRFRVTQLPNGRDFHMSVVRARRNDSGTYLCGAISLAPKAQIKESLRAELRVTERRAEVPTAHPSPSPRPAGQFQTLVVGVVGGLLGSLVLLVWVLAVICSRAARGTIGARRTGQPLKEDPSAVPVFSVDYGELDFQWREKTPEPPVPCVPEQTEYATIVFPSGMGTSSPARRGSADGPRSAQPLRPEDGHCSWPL

[2] = molecular target: T2, murine IL7Ra-IL2Rg-Fc biotin (murine, UniProt P16872 21-239; P34902 23-263); assay: SPR, captured via anti-P329G
T2 construct: extracellular domain; Heterodimer of the ECD of IL7Ra and IL2Rg chains fused to an Fc; also called murine IL7Ralpha-IL2Rgamma-Fc heterodimer; murine IL7 receptor; not shown: Fc part and avi tag; Fc part
T2 sequence (looked up) 1: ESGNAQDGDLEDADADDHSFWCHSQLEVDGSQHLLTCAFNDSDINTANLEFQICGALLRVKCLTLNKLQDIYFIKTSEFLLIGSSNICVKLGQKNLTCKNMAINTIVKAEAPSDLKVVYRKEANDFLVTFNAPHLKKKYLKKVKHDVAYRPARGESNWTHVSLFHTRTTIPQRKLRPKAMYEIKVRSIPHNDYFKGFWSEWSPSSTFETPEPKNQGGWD
T2 sequence (looked up) 2: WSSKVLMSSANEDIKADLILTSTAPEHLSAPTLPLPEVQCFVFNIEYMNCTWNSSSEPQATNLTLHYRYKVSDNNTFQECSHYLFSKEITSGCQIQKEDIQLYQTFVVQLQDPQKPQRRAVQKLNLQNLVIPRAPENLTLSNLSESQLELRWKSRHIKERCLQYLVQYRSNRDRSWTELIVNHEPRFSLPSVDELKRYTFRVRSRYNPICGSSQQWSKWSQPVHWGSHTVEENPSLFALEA
Protocol: (§1) Surface Plasmon Resonance (SPR) experiments were performed on a Biacore 8 K with HBS-EP + 1 mg/ml BSA as running buffer. Anti-P329G Fc specific antibody (Roche internal) was directly immobilized by amine coupling on a C1 chip (Cytiva). The PD1-IL7 constructs were captured for 140 s at 5 nM. […] The dissociation phase was monitored for 800 s and triggered by switching from the sample solution to running buffer. The chip surface was regenerated after every cycle using two injections of 10 mM glycine pH 2 for 60 sec. Bulk refractive index differences were corrected for by subtracting the response obtained on the reference flow cell (containing immobilized anti P329G Fc specific IgG only). The affinity constants were derived from the kinetic rate constants by fitting to a 1:1 Langmuir binding using the Biacore evaluation software (Cytiva).
(§2) Four IL7 single variants and two IL7 double variants were compared to IL7 wild-type for binding to murine IL7 receptor (Table 19). The affinity of the IL7 variants to the IL7 receptor was determined using the recombinant heterodimer of the extracellular domains of the IL7 receptor alpha chain and the common IL2 receptor gamma chain.

[3] = molecular target: T3, Human IL7Ra-IL2Rγ-Fc heterodimer (human, biotin on the avi tag); assay: SPR, captured via anti-P329G, receptor-Fc 2.34-300 nM, 1:1 fit
T3 construct: Extracellular domains of IL-7Ralpha and IL-2Rgamma fused to Fc knob and Fc hole; also called hu IL7Ra-IL2Rγ-Fc avi biotin; human IL7Ra-IL2Rg-Fc biotin
Protocol: as §1
as §2, with “human” for “murine”, “17).” for “19).”

[4] = molecular target: T4, cynomolgus IL7Ra-IL2Rg-Fc biotin (cynomolgus, UniProt P13232;Q29615); assay: as above
T4 construct: extracellular domain; Heterodimer of the ECD of IL7Ra and IL2Rg chains fused to an Fc; also called cynomolgus IL7Ralpha-IL2Rgamma-Fc heterodimer; cynomolgus IL7 receptor
Protocol: as §1
as §2, with “cynomolgus” for “murine”, “18).” for “19).”

[5] = molecular target: T3, Human IL7Ra-IL2Rγ-Fc heterodimer; assay: SPR, captured from supernatant, 800 nM receptor-Fc single injection
Method in brief: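 PDI-IL7 constructs were captured from supernatant (100 nM, 120 s) on anti-Fc CM5 surfaces in HBS-EP+ pH 7.4; 800 nM HEK-produced extracellular-domain receptor-Fc heterodimer was injected once (240 s association, 360 s dissociation). Binding/capture ratio recorded; koff from single-curve fit of dissociation, reference-subtracted.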

[6] = molecular target: T3, Human IL7Ra-IL2Rγ-Fc heterodimer; assay: SPR (Example 2.4), captured via anti-P329G, receptor-Fc 2.34-300 nM, 1:1 fit
Protocol: as §1, with “SPR” for “Surface Plasmon Resonance (SPR)”
Four IL7 single variants, two IL7 double variants and IL7 wild-type were compared to four reference molecules with modified IL7 for binding to human IL7 receptor (Table 23). The affinity of the IL7 variants to the IL7 receptor was determined using the recombinant heterodimer of the extracellular domains of the IL7 receptor alpha chain and the common IL2 receptor gamma chain.

[7] = molecular target: T1, IL-7Rα/IL-2Rγ on human T cells; assay: cell-based or functional assay; remark: listed apart in the source
[8] = molecular target: T1, IL-7Rα/IL-2Rγ on human T cells; assay: cell-based or functional assay; remark: listed apart in the source
[9] = molecular target: T3, Human IL7Ra-IL2Rγ-Fc heterodimer; assay: SPR (Example 2.4), captured via anti-P329G, receptor-Fc 2.34-300 nM, 1:1 fit, single value
Protocol: as §1, with “SPR” for “Surface Plasmon Resonance (SPR)”

- fold increase in EC50, EC50 [PD1+]/EC50 PD1-IL7wt [PD1+] [1]: 2.5 fold
- fold increase in EC50, EC50 [with PD1bl]/EC50 [PD1+] (human PD-1 on T cells): 28.8 fold
- Kd [3]: 25.8 nM
- koff [3]: 0.00535 s⁻¹
- kon [3]: 305000 M⁻¹ s⁻¹
- Kd [4]: 36.5 nM
- koff [4]: 0.012 s⁻¹
- kon [4]: 329000 M⁻¹ s⁻¹
- koff [5]: 0.00994 s⁻¹
- Kd [6]: 40.2 nM
- koff [6]: 0.0101 s⁻¹
- kon [6]: 251000 M⁻¹ s⁻¹
B1: PD1-IL7-VAR4 (V15K) (other)
light: DIVMTQSPDSLAVSLGERATINCKASESVDTSDNSFIHWYQQKPGQSPKLLIYRSSTLESGVPDRFSGSGSGTDFTLTISSLQAEDVAVYYCQQNYDVPWTFGQGTKVEIKRTVAAPSVFIFPPSDEQLKSGTASVVCLLNNFYPREAKVQWKVDNALQSGNSQESVTEQDSKDSTYSLSSTLTLSKADYEKHKVYACEVTHQGLSSPVTKSFNRGEC
heavy 1: EVQLLESGGGLVQPGGSLRLSCAASGFSFSSYTMSWVRQAPGKGLEWVATISGGGRDIYYPDSVKGRFTISRDNSKNTLYLQMNSLRAEDTAVYYCVLLTGRVYFALDSWGQGTLVTVSSASTKGPSVFPLAPSSKSTSGGTAALGCLVKDYFPEPVTVSWNSGALTSGVHTFPAVLQSSGLYSLSSVVTVPSSSLGTQTYICNVNHKPSNTKVDKKVEPKSCDKTHTCPPCPAPEAAGGPSVFLFPPKPKDTLMISRTPEVTCVVVDVSHEDPEVKFNWYVDGVEVHNAKTKPREEQYNSTYRVVSVLTVLHQDWLNGKEYKCKVSNKALGAPIEKTISKAKGQPREPQVCTLPPSRDELTKNQVSLSCAVKGFYPSDIAVEWESNGQPENNYKTTPPVLDSDGSFFLVSKLTVDKSRWQQGNVFSCSVMHEALHNHYTQKSLSLSPGK
heavy 2: EVQLLESGGGLVQPGGSLRLSCAASGFSFSSYTMSWVRQAPGKGLEWVATISGGGRDIYYPDSVKGRFTISRDNSKNTLYLQMNSLRAEDTAVYYCVLLTGRVYFALDSWGQGTLVTVSSASTKGPSVFPLAPSSKSTSGGTAALGCLVKDYFPEPVTVSWNSGALTSGVHTFPAVLQSSGLYSLSSVVTVPSSSLGTQTYICNVNHKPSNTKVDKKV[human IgG1 Fc with changes left out]GGGGSGGGGSGGGGSDCDIEGKDGKQYESKLMVSIDQLLDSMKEIGSNCLNNEFNFFKRHICDANKEGMFLFRAARKLRQFLKMNSTGDFDLHLLKVSEGTTILLNCTGQVKGRKPAALGEAQPTKSLEENKSLKEQKKLNDLCFLKRLLQEIKTCWNKILMGTKEH
notes: Format as m1; IL-7 with V15K; also called PD1-IL7 -V15K (Var4); P1AF5541-006
- binding result [2]: no binding (tested: 2.34 to 300 nM receptor-Fc)

- EC50 [PD1+]/ EC50[PD1-IL7wt] [7]: 49.9 fold
- STAT5-P AUC PD1+ [7]: 28.5
- STAT5-P AUC PD1 blocked [7]: 3
- EC50[active] / EC50 [active PD1-IL7wt] [8]: 106 fold
- EC50[fresh]/EC50 [fresh PD1-IL7wt] [8]: 1720 fold
- STAT5-P AUC [active] [8]: 42.8
- STAT5-P AUC [fresh] [8]: 73
- Kd [3]: 266 nM
- koff [3]: 0.0207 s⁻¹
- kon [3]: 78100 M⁻¹ s⁻¹
- Kd [4]: 529 nM
- koff [4]: 0.035 s⁻¹
- kon [4]: 67000 M⁻¹ s⁻¹
- Kd [9]: 342 nM
- koff [9]: 0.0148 s⁻¹
- kon [9]: 43300 M⁻¹ s⁻¹
B2: PD1-IL7-VAR18 (K81E) VAR21 (G85E) (other)
light: DIVMTQSPDSLAVSLGERATINCKASESVDTSDNSFIHWYQQKPGQSPKLLIYRSSTLESGVPDRFSGSGSGTDFTLTISSLQAEDVAVYYCQQNYDVPWTFGQGTKVEIKRTVAAPSVFIFPPSDEQLKSGTASVVCLLNNFYPREAKVQWKVDNALQSGNSQESVTEQDSKDSTYSLSSTLTLSKADYEKHKVYACEVTHQGLSSPVTKSFNRGEC
heavy 1: EVQLLESGGGLVQPGGSLRLSCAASGFSFSSYTMSWVRQAPGKGLEWVATISGGGRDIYYPDSVKGRFTISRDNSKNTLYLQMNSLRAEDTAVYYCVLLTGRVYFALDSWGQGTLVTVSSASTKGPSVFPLAPSSKSTSGGTAALGCLVKDYFPEPVTVSWNSGALTSGVHTFPAVLQSSGLYSLSSVVTVPSSSLGTQTYICNVNHKPSNTKVDKKVEPKSCDKTHTCPPCPAPEAAGGPSVFLFPPKPKDTLMISRTPEVTCVVVDVSHEDPEVKFNWYVDGVEVHNAKTKPREEQYNSTYRVVSVLTVLHQDWLNGKEYKCKVSNKALGAPIEKTISKAKGQPREPQVCTLPPSRDELTKNQVSLSCAVKGFYPSDIAVEWESNGQPENNYKTTPPVLDSDGSFFLVSKLTVDKSRWQQGNVFSCSVMHEALHNHYTQKSLSLSPGK
heavy 2: EVQLLESGGGLVQPGGSLRLSCAASGFSFSSYTMSWVRQAPGKGLEWVATISGGGRDIYYPDSVKGRFTISRDNSKNTLYLQMNSLRAEDTAVYYCVLLTGRVYFALDSWGQGTLVTVSSASTKGPSVFPLAPSSKSTSGGTAALGCLVKDYFPEPVTVSWNSGALTSGVHTFPAVLQSSGLYSLSSVVTVPSSSLGTQTYICNVNHKPSNTKVDKKV[human IgG1 Fc with changes left out]GGGGSGGGGSGGGGSDCDIEGKDGKQYESVLMVSIDQLLDSMKEIGSNCLNNEFNFFKRHICDANKEGMFLFRAARKLRQFLKMNSTGDFDLHLLEVSEETTILLNCTGQVKGRKPAALGEAQPTKSLEENKSLKEQKKLNDLCFLKRLLQEIKTCWNKILMGTKEH
notes: Format as m1; IL-7 with K81E and G85E; also called PD1-IL7 VAR18/21 (K81E/G85E); PD1-IL7VAR18/21
- binding result [2]: no binding (tested: 2.34 to 300 nM receptor-Fc)
